Screen size: about 310,000 compounds; about 14,000 (4.5%) showed an effect of 50% or more. Effects have a minus sign here. The list shows a part of the results.
target: human ether-à-go-go-related gene (hERG) potassium channel (human, UniProt Q12809); experiment: primary screen, population patch clamp on CHO cells stably expressing hERG
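Note: peak tail current of the secondary pulse compared with the same well before compound.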

human ether-à-go-go-related gene (hERG) potassium channel, sequence (Q12809 whole entry, looked up): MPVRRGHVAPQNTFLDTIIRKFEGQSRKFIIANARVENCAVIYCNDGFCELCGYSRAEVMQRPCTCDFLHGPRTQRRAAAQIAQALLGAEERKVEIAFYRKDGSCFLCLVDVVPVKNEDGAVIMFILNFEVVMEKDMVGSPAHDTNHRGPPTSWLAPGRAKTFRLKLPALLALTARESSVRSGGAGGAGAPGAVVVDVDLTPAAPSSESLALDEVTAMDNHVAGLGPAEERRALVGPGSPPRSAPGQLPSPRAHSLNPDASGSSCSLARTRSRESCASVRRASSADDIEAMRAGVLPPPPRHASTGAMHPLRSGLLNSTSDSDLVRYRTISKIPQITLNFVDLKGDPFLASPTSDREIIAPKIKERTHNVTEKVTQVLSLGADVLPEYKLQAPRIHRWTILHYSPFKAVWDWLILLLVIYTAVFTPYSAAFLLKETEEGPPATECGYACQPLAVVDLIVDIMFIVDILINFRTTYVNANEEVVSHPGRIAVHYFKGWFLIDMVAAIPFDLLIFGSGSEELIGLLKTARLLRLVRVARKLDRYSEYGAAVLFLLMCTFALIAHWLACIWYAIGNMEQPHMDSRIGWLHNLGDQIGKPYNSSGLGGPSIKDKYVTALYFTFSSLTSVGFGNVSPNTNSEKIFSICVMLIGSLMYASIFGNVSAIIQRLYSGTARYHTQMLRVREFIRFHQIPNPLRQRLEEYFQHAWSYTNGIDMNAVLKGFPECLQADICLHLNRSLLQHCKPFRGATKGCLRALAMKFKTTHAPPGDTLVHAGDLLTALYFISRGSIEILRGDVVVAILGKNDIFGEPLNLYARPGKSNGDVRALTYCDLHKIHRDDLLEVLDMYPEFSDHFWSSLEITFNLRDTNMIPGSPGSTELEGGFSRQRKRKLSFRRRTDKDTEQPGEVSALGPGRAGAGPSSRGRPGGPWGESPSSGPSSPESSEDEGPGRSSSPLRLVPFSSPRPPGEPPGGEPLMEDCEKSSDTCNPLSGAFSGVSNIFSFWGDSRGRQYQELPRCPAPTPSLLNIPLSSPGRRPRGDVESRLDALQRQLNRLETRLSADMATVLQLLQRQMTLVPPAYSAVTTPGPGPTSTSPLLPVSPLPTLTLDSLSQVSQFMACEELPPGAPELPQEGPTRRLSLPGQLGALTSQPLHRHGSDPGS

Compound | hERG current change (%, negative = inhibition) at 10uM
N#Cc1cnn2c(C(F)(F)F)c3c(nc12)CCCC3 | -5.18%
Cc1cc(NS(=O)(=O)c2ccc(NC(=O)CN3C(=O)c4ccccc4C3=O)cc2)nc(C)n1 | 6.65%
CC(=O)/C(=C\N(C)C)Sc1ccc(C)cc1 | 32.3%
CCOC(=O)CN1C(=O)C(O)(CC(=O)c2cccc(OC)c2)c2ccccc21 (stereo not shown) | 5.13%
Cc1ccc(C(=O)Oc2coc(CSc3nnc(NC(=O)C4CC4)s3)cc2=O)cc1 | 16.6%
COc1ccc(CN2CCCCCC2)cc1Br | -11.1%
COc1ccc2cc3c(N)nn(C(=O)Cc4ccc(Cl)cc4)c3nc2c1 | 11.2%
Cc1cccc(OCCCC(=O)Nc2ccc(S(=O)(=O)Nc3ncccn3)cc2)c1C | 17.2%
COc1ccc(CNC(=O)CCNS(=O)(=O)c2ccc(NC(C)=O)cc2)cc1OC | 8.05%
Cc1ccc(-c2noc(COc3ccc4c(c3)OCO4)n2)cc1 | 6.96%
CCOC(=O)C1=c2/c(=C/c3ccncc3)c(N)c(C(=O)OC)n2C(=O)C(c2ccncc2)S1 (stereo not shown) | 1.36%
COC(=O)c1c(C(=O)OC)c(-c2cccc(C)c2)n2c1CS(=O)C2 (stereo not shown) | 12.1%
COC(=O)CNc1cccc(C(F)(F)F)c1 | 4.99%
COc1cccc(CC2CC(=O)N(CCc3ccc4c(c3)OCO4)C2=O)c1 (stereo not shown) | -19.1%
O=C(Nc1ccc(N2CCN(C(=O)c3ccco3)CC2)c(Cl)c1)c1cc2ccccc2o1 | -67.9%
Cc1ccc2[nH]cc(CCCN3C(=O)c4ccccc4C3=O)c2c1 | -51.4%
COc1ccc(CN(CC2CCC(C(=O)O)CC2)C(=S)Nc2cc(Cl)ccc2OC)cc1 (stereo not shown) | 27.4%
CC(C)CN1CCNC(=O)C1CC(=O)NCCCN1CCCc2ccccc21 (stereo not shown) | 8.85%
CCOC(=O)CSc1nn(C)c(=S)s1 | 0.202%
O=C(CCSc1ccc(Cl)cc1)Nc1cccnc1 | -11.6%

Compound | hERG current change (%, negative = inhibition) at 10uM
COc1ccc(C(=O)N2CCCN(C)CC2)cc1S(=O)(=O)N(C)Cc1ccccc1 | -23.3%
COc1ccc(NC(=S)Nc2ccccc2C(F)(F)F)cc1 | 17.2%
COc1ccc(-c2cc(-c3ccccc3O)[nH]n2)cc1OC | 8.6%
COc1ccc(C(=O)COC(=O)/C=C/c2ccc(S(=O)(=O)Nc3cccc(S(N)(=O)=O)c3)cc2)cc1 | 4.88%
Cc1c(C(=O)NCc2ccccc2)oc2ccc(S(=O)(=O)N3CCCC3)cc12 | 2.65%
O=C1OCCC1Sc1nnc(-c2ccc(Br)cc2)o1 (stereo not shown) | 6.1%
Cc1cc(C)c(OCCCCNCc2ccccc2)c(Cl)c1.O=C(O)C(=O)O | -68.5%
COc1ccccc1-n1c(C)nnc1SCC(=O)Nc1cccc(C(C)=O)c1 | -4.67%
COc1cc(C2NC(=S)NC(C)=C2C(=O)c2ccccc2)ccc1O (stereo not shown) | 5.4%
CCC(=O)Nc1ccc2c(c1)nc(CN1CCCCC1)n2C | 15%
CC1(C)CC(=O)c2c(nn(-c3ccccc3)c2-c2ccncc2)C1 | -1.35%
Cc1ccc(OCC(=O)Nc2cccc(S(=O)(=O)N3CCCCCC3)c2)cc1C | 14.7%
CN(n1cnc2ccccc2c1=O)S(C)(=O)=O | 9.81%
CSc1nc2c(c(=O)n1C)SC(C)C2 (stereo not shown) | 4.31%
O=CN1CCc2scc[n+]2-c2ccccc21.[Br-] | 35.2%
COc1cc2c(cc1OC)CN(CC(=O)Nc1ccccc1SC)CC2 | -14%
CCCCn1c(N)c(N(CCC(C)C)C(=O)C2=COCCO2)c(=O)[nH]c1=O | 11.1%
O=C(NCc1cccs1)c1cc(-c2ccc(O)cc2)on1 | -3.59%
OCc1ccccc1NC(=S)Nc1cccnc1 | -8.56%
COc1ccc(CCNC(=O)CNC(=O)c2ccco2)cc1 | 5.2%

Compound | hERG current change (%, negative = inhibition) at 10uM
COc1ccc(-c2noc(CN(C(=O)c3ccc(OC(C)=O)cc3)C(C)C)n2)cc1OC | -12.3%
COc1cc(/C=C\C(=O)NCc2ccc3c(c2)cc(C)n3C)cc(OC)c1OC | 3.57%
COP(=O)(OC)/C(C=O)=N/Nc1ccc([N+](=O)[O-])cc1 | -36.3%
O=c1[nH]c(/C=C\c2ccccc2F)nc(O)c1[N+](=O)[O-] | 17.5%
CC(C)NC(=O)NC(=O)COC(=O)CCCSc1nc2ccccc2s1 | 6.35%
CC(C)N1CCC2(CC1)NC(CO)(CO)CO2 | 20.5%
Cc1cc(C(=O)OCC(=O)NC(C)c2ccccc2)c(C)o1 (stereo not shown) | 14.9%
N#Cc1nc(COc2ccccc2F)oc1NCCc1ccccc1 | -4.44%
CCN(Cc1ccccc1)S(=O)(=O)c1c[nH]c(C(=O)OC)c1 | -9.39%
O=C(COC(=O)c1cc(Br)ccc1O)Nc1cccnc1Cl | 2.93%
CC(=O)c1ccc(OCCCC(=O)NC2CCC(C)CC2)cc1 (stereo not shown) | -3.29%
Cc1nccn1CC(O)COc1ccc([N+](=O)[O-])cc1 (stereo not shown) | -66.2%
Cc1oc(-c2ccccc2F)nc1CS(=O)(=O)CC(=O)N1CCN(c2ccccc2)CC1 | -5.57%
Cc1csc(CN(C)C(=O)C2CCC(=O)N(CCCc3ccccc3)C2)n1 (stereo not shown) | -5.37%
CC(C)(C)c1ccc(-c2nnc3sc(-c4ccccn4)nn23)cc1 | -1.22%
O=C(NCc1ccc(Cl)cc1)c1nccnc1CO | 11.5%
COc1ccc(F)cc1S(=O)(=O)N1CCCC(C)C1 (stereo not shown) | -11.7%
COc1ccc(NC(=O)COc2nsnc2N2CCOCC2)cc1 | 17.7%
